Experimental data published in PubChem BioAssay AID624417 (National Center for Advancing Translational Sciences (NCATS), 2012).
Among all 410,000 compounds or so, about 6,400 (1.6%) were called active. Inconclusive results, whose numbers are uncertain, are shown with a selection of clear calls. Calls come from the whole dose curve; as a rule, active = well fitted inhibition curve with a large enough effect; inconclusive = small, poorly fitted or top-dose-only effect; inactive = no such curve, though single readings can be large or run the other way. No potency is given beside an inconclusive call; the fits are too rough.

The compounds below were run against Glucagon-like peptide 1 receptor (Homo sapiens) (UniProt P43220) (assay: qHTS of GLP-1 Receptor Inverse Agonists (Inhibition Mode)). Conditions: HEK293 GLP-1R CRE-luciferase, luminescence, 24 h, GLP-1R form is constitutively active; series mostly up to 38.3 µM.
UniProt P43220, sequence (P43220 whole entry, looked up): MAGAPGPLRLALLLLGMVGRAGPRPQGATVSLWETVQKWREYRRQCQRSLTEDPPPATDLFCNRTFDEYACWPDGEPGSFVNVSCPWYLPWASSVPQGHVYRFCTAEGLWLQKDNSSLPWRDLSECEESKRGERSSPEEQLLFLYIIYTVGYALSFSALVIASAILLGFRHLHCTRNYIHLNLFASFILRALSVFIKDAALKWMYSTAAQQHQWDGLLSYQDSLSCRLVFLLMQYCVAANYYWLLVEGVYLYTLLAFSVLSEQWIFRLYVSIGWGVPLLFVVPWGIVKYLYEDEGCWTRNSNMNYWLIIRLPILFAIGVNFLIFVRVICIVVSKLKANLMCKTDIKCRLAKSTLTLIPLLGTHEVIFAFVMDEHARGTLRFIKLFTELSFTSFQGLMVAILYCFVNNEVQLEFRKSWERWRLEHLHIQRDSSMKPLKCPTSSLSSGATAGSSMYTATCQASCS
Summary of the method: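 Luminescence readout: a drop in cAMP-driven luciferase signal flags inverse agonism at a constitutively active GLP-1R stably expressed in HEK293. Compound exposure lasted 24 hr at 37 deg C, 5% CO2.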
Note: nearly all actives have a fitted effect of over 55% in size.
Potency is the fitted concentration of half-maximal effect; tags give direction and shape of the fitted curve.

| Structure (SMILES) | Potency |
| --- | --- |
| CCc1ccc(NC(=O)CC2C(=O)N(c3ccc(Cl)cc3)C(=O)N2Cc2cccs2)cc1 (stereo not drawn) | inconclusive [inhibitor, single point] |
| Cc1ccc(C(=O)NN(C)c2nc3ccccc3nc2C(F)(F)F)cc1 | inconclusive [inhibitor, full curve, poor fit] |
| COc1ccc(CNCCC(c2ccc(OC)cc2)c2ccccc2OC)cc1 (stereo not drawn) | active: 10 µM |
| CCN(CC)CCn1nc2c3c(cccc3c1=O)-c1ccccc1-2 | inconclusive [inhibitor, full curve, poor fit] |
| Cc1ccc(C)c(N2CCN(C(=O)CCS(=O)(=O)c3ccc4c(c3)CC(=O)N4C)CC2)c1 | inactive |
| COc1ccccc1/C=C/C=N/N1CCN(c2ccccn2)CC1 | inconclusive [inhibitor, single point] |
| O=C(N/N=C/c1cc([N+](=O)[O-])ccc1O)c1ccncc1 | inconclusive [inhibitor, partial curve, poor fit] |
| S=C(NCCCN1CCOCC1)Nc1ccc(Nc2ccccc2)cc1 | inactive |
| COc1ccc(-c2onc(C)c2C)cc1S(=O)(=O)NCc1ccc(Br)cc1 | inactive |
| Cc1ccc(-c2nc(-c3cccnc3)sc2CC(=O)Nc2ccc(C)c(Cl)c2)cc1 | inconclusive [inhibitor, full curve, poor fit] |
| Cc1ccc(-c2[nH]ncc2C(=O)c2ccc(Br)cc2)c(O)c1 | inconclusive [inhibitor, single point] |
| CCCCn1c(-c2cccc(Br)c2)nc2cc3[nH]c(=O)c(C(C)C)nc3cc21 | inactive |
| Cc1ccc(NC(=O)CCNS(=O)(=O)c2ccc3[nH]c(=O)oc3c2)cc1C | inconclusive [inhibitor, full curve, poor fit] |
| CC(=O)Nc1cccc(NC(=O)/C=C/c2ccc(S(=O)(=O)N3CCOCC3)cc2)c1 | inactive |
| COc1ccc(NC(=O)c2cc(C3CC3)nc3c2cnn3C(C)C)cc1OC | inconclusive [inhibitor, single point] |
| CCN(CC)CCOC(=O)C(c1ccccc1)C1CCCCC1 (stereo not drawn) | inconclusive [inhibitor, partial curve, poor fit] |
| Cc1ccc(NC(=O)C2CCCN(S(=O)(=O)c3c(C)noc3C)C2)cc1F (stereo not drawn) | inconclusive [inhibitor, partial curve, poor fit] |
| Cn1cc(/C=C/C(=O)N2CCCC(C(=O)c3ccc(C(F)(F)F)cc3)C2)cn1 (stereo not drawn) | inconclusive [inhibitor, partial curve, poor fit] |
| C#Cc1ccc([C@H]2C=C(C(=O)N3CCN(Cc4ccccc4)CC3)O[C@@H](OCC)[C@@H]2CCCO)cc1 | inconclusive [inhibitor, single point] |
| CCN(Cc1ccc(OC)c(F)c1)C(=O)CCl | active: 3.16 µM |
| CCOc1cccc(CNc2ccc(O)cc2)c1OCc1ccccc1Cl | inconclusive [inhibitor, single point] |

| Structure (SMILES) | Potency |
| --- | --- |
| CN1CCN(c2ccc([N+](=O)[O-])cc2/C=N/NC(=O)c2ccc(F)cc2)CC1 | inconclusive [inhibitor, partial curve, poor fit] |
| COc1ccc(NS(=O)(=O)c2cc(NC(=O)c3ccco3)ccc2N2CCCC2)cc1 | inactive |
| COc1cc(/C=C(/C#N)c2ccc(C)cc2)ccc1Oc1ccc([N+](=O)[O-])cn1 | inconclusive [inhibitor, single point] |
| N#C/C(=C\c1ccc(-c2ccc(F)cc2F)o1)c1nc2ccccc2[nH]1 | inactive |
| Cc1ccc(C)c(S(=O)(=O)N2CCN(C(=O)CNC(=O)c3ccc4ccccc4c3)CC2)c1 | inconclusive [inhibitor, single point] |
| NNc1cc2c(nn1)CCN(C(=O)c1ccccc1)C2 | inconclusive [inhibitor, single point] |
| Cc1cc(C)c(C)c(S(=O)(=O)NC2CCCCC2)c1C | inconclusive [inhibitor, full curve, poor fit] |
| CC1CCC(C(C)C)C(OC(=O)C[n+]2cc(-c3ccc(Cl)cc3)n3c2CCC3)C1 (stereo not drawn) | inconclusive [inhibitor, single point] |
| Cc1cc(C)cc(NC(=O)CN(C)S(=O)(=O)c2ccc3[nH]c4c(c3c2)CCCC4)c1 | inconclusive [inhibitor, single point] |
| O=C(CSc1ccccc1F)NCC1(N2CCCCC2)CCCCC1 | inconclusive [inhibitor, single point] |
| CCCNC(=O)NC(=O)CN1CCCC1c1ccc2c(c1)OCCO2 (stereo not drawn) | inconclusive [inhibitor, single point] |
| N=c1sccn1CC(=O)N1N=C(c2ccc(Cl)cc2)CC1c1ccco1 (stereo not drawn) | inconclusive [inhibitor, single point] |
| CC(=O)c1ccc(NC(=O)c2cnsn2)cc1 | inconclusive [inhibitor, partial curve, poor fit] |
| CCOc1ccccc1CNC(=O)CCc1cn(Cc2ccc(Cl)cc2)c2ccccc12 | inconclusive [inhibitor, partial curve, poor fit] |
| CCSc1ccc([C@@H]2[C@H]3C(=O)N(CC)C(=O)[C@H]3[C@]3(C(=O)OC)CCCCN23)cc1 | inconclusive [inhibitor, single point] |
| CC(C)(C)c1ccc(C(=O)Nc2cccnc2)cc1 | inconclusive [inhibitor, partial curve, poor fit] |
| COC(=O)C(CC(=O)c1ccc(Cl)cc1)c1ccc(C)cc1 (stereo not drawn) | inconclusive [inhibitor, partial curve, poor fit] |
| O=C(NCCc1csc(-c2cccc(F)c2)n1)c1ccc(Br)o1 | inconclusive [inhibitor, single point] |
| CCCCCN(C(=O)CCC(=O)OCc1cccc(Br)c1)c1c(N)n(CCCC)c(=O)[nH]c1=O | inconclusive [inhibitor, single point] |
| CC(C)c1ccc2c(c1)C1(NN=C(c3ccccc3)S1)C(=O)N2 (stereo not drawn) | inconclusive [inhibitor, partial curve, poor fit] |
| COc1cccc(-n2c(=O)c3c(C)c(C(=O)N(C)C)sc3n(CC(=O)Nc3ccc(C)cc3Cl)c2=O)c1 | inactive |

| Structure (SMILES) | Potency |
| --- | --- |
| O=C(Nc1ccc2c(c1)N(C1CCCC1)C(=O)c1ccccc1S2)c1cccc(F)c1 | inconclusive [inhibitor, full curve] |
| CCSc1nc2sc3c(c2c(=O)n1C1CCCCC1)CCN(C)C3 | inconclusive [inhibitor, partial curve, poor fit] |
| CCc1ccc(-c2nn(Cc3ccccc3)cc2C(=O)NCC2CCCO2)cc1 (stereo not drawn) | inconclusive [inhibitor, partial curve, poor fit] |
| CSc1ccc(Cn2c(C)c(C(=O)NCc3ccccc3C(F)(F)F)sc2=O)cc1 | inconclusive [inhibitor, partial curve, poor fit] |
| CC(C)OCCCNC(=O)CN1C(=O)CSc2ccc(S(=O)(=O)N3CCCCC3)cc21 | inconclusive [inhibitor, partial curve, poor fit] |
| C=C1CCN([C@H](C(=O)Nc2ccc(OC)cc2)C(C)C)S(=O)(=O)c2ccccc21 | inconclusive [inhibitor, partial curve, poor fit] |
| CC(C)(C)N/N=C/c1cc(Cl)cc([N+](=O)[O-])c1O | inactive |
| O=C(O)Cc1sc(Nc2cccc3ccccc23)nc1-c1ccc(F)cc1 | inconclusive [inhibitor, partial curve, poor fit] |
| O=C(Nc1ccc(Cl)c(Cl)c1)Nc1ccon1 | active: 7.94 µM |
| COc1ccc(CN2C(=O)c3cccnc3C2Nc2ccc(OC)c(Cl)c2)cc1 (stereo not drawn) | inactive |
| Cn1cc(CCNC(=O)c2ccc3nc(Cc4ccccc4F)oc3c2)cn1 | inconclusive [inhibitor, partial curve, poor fit] |
| O=C(N/N=C\c1ccc(Cl)s1)c1cccs1 | inconclusive [inhibitor, single point] |
| O=[N+]([O-])c1cccnc1Sc1ccc(F)cc1 | inconclusive [inhibitor, single point] |
| Nc1[nH]c(C(=O)c2ccccc2)c(-c2c(F)cccc2F)c1C(=O)c1ccc(Cl)c(Cl)c1 | inconclusive [inhibitor, partial curve, poor fit] |
| Cc1ccc(CSC2=NCCN2S(=O)(=O)c2ccc(F)cc2)cc1 | inconclusive [inhibitor, single point] |
| Cc1cccc(C(=O)N[C@H](C(=O)NCc2cccs2)C(C)C)c1 | inconclusive [inhibitor, single point] |
| Cc1ccc2sc(N(CCCN(C)C)C(=O)CN3C(=O)c4ccccc4C3=O)nc2c1C | inconclusive [inhibitor, single point] |
| CC(=O)c1sc(Nc2ccc(C)cc2)nc1C | inactive |
| O=C1C(=O)c2cccnc2-c2ncccc21 | inconclusive [inhibitor, full curve, poor fit] |
| CC(=O)N1c2ccccc2C(=O)C1N1CCN(c2ccc(F)cc2)CC1 (stereo not drawn) | inactive |
| CCN1CCN(c2ccc(S(=O)(=O)N3CCOCC3)cc2NC(=O)/C=C/c2ccc([N+](=O)[O-])cc2)CC1 | inconclusive [inhibitor, single point] |
